Test results reported in article PMC13052863 (PLOS One, 2026).
Several values for one entry are separate records, joined by “and”; a condition that tells them apart may be missing. Equal values may be shown once.

Experiments:
[1] = biological target: T1, D. melanogaster eIF4A mutant Y160L (Drosophila melanogaster, UniProt Q02748, Y160L); format: binding; settings: S2 Table; D. melanogaster mut., (AG)5 RNA, AMP-PNP, 100 μM inhibitor
T1 construct: made in house; host or cells: E. coli BL21 (DE3)

[2] = system: A. suspensa eIF4A wt
From the text: (§1) TSA is used to determine protein stability by measuring the melting temperature (Tm) of a protein alone or in a complex (here with RNA oligos and inhibitors) using the fluorescent dye SYPRO Orange. The latter binds to hydrophobic residues which usually are in the core of the protein. With increasing temperature, the protein starts to unfold and expose its hydrophobic residues, allowing the dye to bind. Thus, with increasing temperature, fluorescence first increases until it reaches a peak, followed by a decrease corresponding to the dissociation of the protein-dye complex due to high temperatures. Tm is calculated as the inflexion point of the curve. A shift of the melting curve to higher temperature is indicative of a stabilization effect (here clamping of the protein to the RNA oligo in presence of the inhibitor), whereas a shift to lower temperature indicates a destabilization effect. Here, the difference in melting temperature ΔTm (°C) was calculated between the eIF4A and the eIF4A-RNA-AMP-PNP complex with two inhibitor classes (rocaglate and pateamine in Fig 5) or different RNA oligos (Fig 6). TSA experiments were performed on a real-time PCR system (QuantStudio™ 3, Applied Biosystems, Waltham, MA, USA) in a MicroAmp™ Fast Optical 96-well plate (Applied Biosystems, Waltham, MA, USA) using QuantStudio™ Design & Analysis software (version 1.4.2.). 5 μM of recombinant eIF4A was incubated with 50 μM of a polypurine RNA (AG)5 (Biomers, Ulm, Germany), 1 mM AMP-PNP (Roche, Basel, Switzerland), 100 μM of inhibitors (silvestrol, RocA, CR-31-B (+), CR-31-B (-), zotatifin, PatA, DMDAPatA) and 75 μM of SYPRO Orange (S6650, Invitrogen, Carlsbad, CA, USA) in 20 mM HEPES–KOH buffer pH 7.5, 100 mM KCl, 5 mM MgCl2, 1 mM DTT and 10% (v/v) glycerol at RT in a final volume of 20 µL. In the first step, the protein sample was subjected to a cooling rate of 1.6 °C/s until a temperature of 10 °C was reached and kept constant for two minutes. In the second step, the temperature was increased by 0.05 °C/s until a temperature of 95 °C was reached and kept constant for one minute. In the final step, the temperature was decreased by 1.6 °C/s until 10 °C and kept constant for one minute. The wavelength of the fluorescence scan for excitation and emission was set to the spectroscopic maxima of SYPRO® Orange (472 nm and 570 nm, respectively). The melting curves were analyzed using Protein Thermal Shift Software (version 1.3) from Thermo Fisher Scientific.

[3] = system: Ae. aegypti eIF4A wt
From the text: as §1

[4] = system: Ae. aegypti eIF4A mutant H161L; settings: S2 Table; Ae. aegypti mut., (AG)5 RNA, AMP-PNP, 100 μM inhibitor
From the text: as §1

[5] = system: A. suspensa eIF4A mutant Y160L; settings: S2 Table; A. suspensa mut., (AG)5 RNA, AMP-PNP, 100 μM inhibitor
From the text: as §1

[6] = biological target: T2, D. melanogaster eIF4A wt (Drosophila melanogaster, UniProt Q02748); format: binding; settings: S2 Table, (AG)5 RNA, AMP-PNP, 100 μM inhibitor
T2 construct: made in house; host or cells: E. coli BL21 (DE3)

| Structure (SMILES) | ∆Tm [1] [°C] | ∆Tm [2] [°C] | ∆Tm [3] [°C] | ∆Tm [4] [°C] | ∆Tm [5] [°C] | ∆Tm [6] |
| --- | --- | --- | --- | --- | --- | --- |
| CONC(=O)C1C(O)C2(O)c3c(OC)cc(OC)cc3OC2(c2ccc(OC)cc2)C1c1ccccc1 (stereo not drawn) [CR-31-B (+)] | -2.10 | -3.20 | 1.89 | 2.21 | -3.46 | -2.27 °C |
| CONC(=O)C1C(O)C2(O)c3c(OC)cc(OC)cc3OC2(c2ccc(OC)cc2)C1c1ccccc1 (stereo not drawn) [CR-31-B (-)] | 0.74 | – | – | 7.50 | – | 6.55 °C |
| CC(/C=C/C(C)=C/[C@@H]1Cc2nc(cs2)CCCCC(=O)O[C@@H](C)C/C(C)=C/C=C\C(=O)O1)=C\CN(C)C [DMDAPatA, desmethyl desamino pateamine A] | 4.00 | 6.93 | 8.6 | 7.41 | 2.50 | 8.86 °C |
| CC(/C=C/C(C)=C/[C@@H]1Cc2nc(cs2)[C@@H](C)C[C@@H](N)CC(=O)O[C@@H](C)C/C(C)=C/C=C\C(=O)O1)=C\CN(C)C [PatA, pateamine A] | 7.5 | 9.44 | – | 12.09 | – | 8.43 °C |
| COc1ccc([C@@]23Oc4cc(OC)cc(OC)c4[C@]2(O)[C@H](O)[C@H](C(=O)N(C)C)[C@H]3c2ccccc2)cc1 [RocA, rocaglamide A] | 0.68 | 3.89 | 8.14 | 6.87 | 0.97 | 4.52 °C |
| COC(=O)[C@H]1[C@@H](O)[C@@]2(O)c3c(OC)cc(O[C@@H]4O[C@@H]([C@H](O)CO)CO[C@H]4OC)cc3O[C@@]2(c2ccc(OC)cc2)[C@@H]1c1ccccc1 [silvestrol] | 1.76 | – | – | 7.84 | – | 9.55 °C |
| COc1cc2c(c(OC)n1)[C@]1(O)[C@H](O)[C@H](CN(C)C)[C@@H](c3ccccc3)[C@]1(c1ccc(C#N)cc1)O2 [zotatifin] | 1.48 | 3.56 | 7.47 | 6.25 | 0.07 | 3.24 °C and 3 °C |
